Screen size: about 39,000 compounds; about 220 (0.56%) showed activity. The list shows a part of the results.
tested on: Escherichia coli K-12 BW25113; assay: relative growth (OD600 normalised to plate interquartile mean) (fraction); higher = less growth inhibition, active = 0.2 or less; settings: 50 µM; LB; incubation time: overnight (16-24 h)
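Note: static incubation at 37 °C against the wild-type strain, values averaged over two biological replicates.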

| SMILES | relative growth |
| --- | --- |
| COc1ccc(S(=O)(=O)N(C)C[C@H]2OCCCC[C@H](C)Oc3ccc(NS(C)(=O)=O)cc3C(=O)N([C@H](C)CO)C[C@H]2C)cc1 | inactive: 1.02 |
| COc1ccc2c3c(n(c2c1)C)[C@@H](CO)N(C[C@]13CN(CC2CCOCC2)C1)C(=O)c1ccc(cc1)F | inactive: 1 |
| COc1ccc(S(=O)(=O)Nc2ccc3c(c2)C(=O)N([C@@H](C)CO)C[C@H](C)[C@H](CN(C)Cc2ccccc2)OCCCC[C@@H](C)O3)cc1 | inactive: 1.02 |
| C=CCNC(=O)[C@H]1[C@@H]2C(=O)O[C@@H](c3ccccc3)[C@@H](c3ccccc3)N2[C@@H](c2ccccc2OCCO)[C@]12C(=O)N(C(=O)OCCOC)c1ccc(C#Cc3ccc(OC)cc3)cc12 | inactive: 1.08 |
| COc1ccc(CN(C)C[C@H]2Oc3ccc(NS(C)(=O)=O)cc3C(=O)N([C@@H](C)CO)C[C@H]2C)cc1 | inactive: 0.984 |
| C=CCOC(=O)[C@@H]1[C@H]2C(=O)O[C@H](c3ccccc3)[C@H](c3ccccc3)N2[C@H](c2ccc(OCCOC(=O)[C@H]3C[C@H]4C(=O)N5CCC[C@H]5C(=O)N4[C@H]3c3ccc(O)cc3)cc2)[C@@]12C(=O)Nc1ccc(I)cc12 | inactive: 1.04 |
| C[C@H](O)C#Cc1cnc2c(c1)C(=O)N([C@H](C)CO)C[C@@H](C)[C@H](CN(C)C(=O)Nc1ccc(C(F)(F)F)cc1)O2 | inactive: 0.993 |
| C=c1ccc(C)cc1=C1NN=C(NC(=O)c2ccc(S(=O)(=O)N(CCOC)CCOC)cc2)O1 | inactive: 0.998 |
| O=C(N1CCOCC1)C(F)(F)F | inactive: 0.999 |
| C[C@@H]1CCCCO[C@@H](CN(C)Cc2ccc(C(F)(F)F)cc2)[C@H](C)CN([C@H](C)CO)C(=O)c2cc(N(C)C)ccc2O1 | inactive: 1 |
| COc1c(C)cc(-c2cc3c(c(CCc4ccccc4)n2)[Si](C(C)C)(C(C)C)O[C@H]3c2ccccc2)cc1C | inactive: 0.983 |
| N[C@H](Cc1cc(I)c(Oc2ccc(O)c(I)c2)c(I)c1)C(=O)O | inactive: 0.993 |
| C[C@H]1CN([C@@H](C)CO)C(=O)c2cc(NC(=O)Cn3cnnn3)ccc2O[C@@H]1CN(C)Cc1ccncc1 | inactive: 1.02 |
| Cc1noc(C)c1NC(=O)N(C)C[C@@H]1OCCCC[C@H](C)Oc2ccc(NS(=O)(=O)c3ccc(F)cc3)cc2C(=O)N([C@@H](C)CO)C[C@@H]1C | inactive: 0.992 |
| O=C(CCCCC(=O)N/N=C/[C@H](O)[C@@H](O)[C@H](O)CO)NO | inactive: 1.01 |
| CCCCNC(=O)N1CCN(C)CC1 | inactive: 1.01 |
| CCS(=O)(=O)Nc1ccc2c(c1)C(=O)N(C)[C@@H]1CC[C@@H](CC(=O)N3CCN(C)CC3)O[C@H]1CO2 | inactive: 1.01 |
| C[C@@H]1CN([C@H](C)CO)C(=O)c2cc(NC(=O)Cn3cnnn3)ccc2O[C@H]1CN(C)Cc1ccc(Oc2ccccc2)cc1 | inactive: 1.01 |
| COc1ccc([C@H]([C@@H](O)Cc2ccccc2)N(CC#C[C@@H](O)c2ccccc2)[C@@H](Cc2ccccc2)C(OC)OC)cc1 | inactive: 1.02 |
| CC(C)C#Cc1cnc2c(c1)C(=O)N([C@@H](C)CO)C[C@H](C)[C@@H](CN(C)C(=O)c1ccc3c(c1)OCO3)O2 | inactive: 1.04 |

| SMILES | relative growth |
| --- | --- |
| C[C@H]1CN([C@@H](C)CO)C(=O)Cc2cc(NS(=O)(=O)c3cn(C)cn3)ccc2O[C@@H]1CN(C)Cc1ccncc1 | inactive: 1.01 |
| Cc1noc(C)c1NC(=O)Nc1ccc2c(c1)C(=O)N([C@H](C)CO)C[C@H](C)[C@H](CN(C)C(=O)c1ccccc1)OCCCC[C@@H](C)O2 | inactive: 0.998 |
| O=C(Nc1cccc2cccnc12)[C@H]1[C@@H](c2ccc(C(F)(F)F)cc2)CC(=O)N1C(=O)OCc1ccccc1 | inactive: 0.958 |
| C[C@H]1CCCCO[C@H](CN(C)Cc2ccc(Cl)c(Cl)c2)[C@@H](C)CN([C@@H](C)CO)C(=O)c2cc(NC(=O)Nc3ccc(F)cc3)ccc2O1 | inactive: 1.01 |
| CN(C)CCCNC(=O)C[C@@H]1CC[C@@H]2[C@H](COc3ccc(NC(=O)c4ccc5c(c4)OCO5)cc3C(=O)N2C)O1 | inactive: 1.02 |
| COc1ccc(S(=O)(=O)Nc2ccc3c(c2)C(=O)N([C@H](C)CO)C[C@H](C)[C@H](CN(C)CC2CCCCC2)OCCCC[C@H](C)O3)cc1 | inactive: 1 |
| CCOC(=O)Cn1c(=O)c(C(N)=S)cn(C(C)C)c1=O | inactive: 0.973 |
| C[C@H](CO)N1C[C@H](C)[C@@H](CN(C)C(=O)Nc2cccc3ccccc23)OCCCC[C@H](C)Oc2ccc(NC(=O)Nc3cccc4ccccc34)cc2C1=O | inactive: 1.02 |
| Cc1noc(C)c1S(=O)(=O)N(C)C[C@H]1Oc2c(NS(=O)(=O)c3cn(C)cn3)cccc2C(=O)N([C@H](C)CO)C[C@@H]1C | inactive: 0.992 |
| N#Cc1ccc(-c2ccccc2)cn1 | inactive: 1 |
| O=C(C[C@H]1CC[C@@H](NC(=O)C2CC2)[C@H](CO)O1)NCCCN1CCOCC1 | inactive: 0.988 |
| C[C@@H]1CCCCO[C@H](CN(C)C)[C@H](C)CN([C@@H](C)CO)C(=O)c2cc(NC(=O)Nc3cccc4ccccc34)ccc2O1 | inactive: 1.02 |
| Cc1noc(C)c1S(=O)(=O)Nc1ccc2c(c1)CC(=O)N([C@@H](C)CO)C[C@@H](C)[C@H](CN(C)S(=O)(=O)c1ccccc1)O2 | inactive: 1.02 |
| CS(=O)(=O)N1CCOC[C@]2(CN(C(=O)c3ccc[nH]3)CCO2)C1 | inactive: 1.02 |
| CN1C(=O)c2cc(NC(=O)Nc3ccccc3F)ccc2OC[C@@H]2O[C@H](CC(=O)NCc3ccc(-c4ccccc4)cc3)CC[C@@H]21 | inactive: 1.08 |
| CC(=O)N1CCN(CCOc2ccc(C3CCN(C4=Nn5c(nnc5C(F)(F)F)CC4)CC3)cc2)CC1 | inactive: 0.985 |
| COc1ccccc1NC(=O)N(C)C[C@H]1Oc2ncc(C#CCN(C)C)cc2C(=O)N([C@@H](C)CO)C[C@H]1C | inactive: 1 |
| COc1ccc(NC(=O)Nc2ccc3c(c2)CC(=O)N([C@H](C)CO)C[C@H](C)[C@H](CN(C)Cc2ccc(C(F)(F)F)cc2)O3)cc1 | inactive: 0.999 |
| C[C@H]1CN([C@@H](C)CO)C(=O)c2cc(NC(=O)CCCCCC(=O)Nc3ccccc3N)ccc2O[C@H]1CN(C)C(=O)Nc1ccccc1 | inactive: 0.944 |
| COc1ccc(S(=O)(=O)N2C[C@@H](O)COC[C@H]3O[C@H](CC(=O)N[C@H]4CCN(Cc5ccccc5)C4)CC[C@@H]32)cc1 | inactive: 0.98 |

| SMILES | relative growth |
| --- | --- |
| COc1ccc(NC(=O)Nc2cccc3c2O[C@@H](CN(C)S(=O)(=O)c2cn(C)cn2)[C@@H](C)CN([C@H](C)CO)C3=O)cc1 | inactive: 0.982 |
| CC(C)CC#Cc1ccc2c(c1)O[C@@H](CN(C)C(=O)Cc1cccnc1)[C@@H](C)CN([C@@H](C)CO)S2(=O)=O | inactive: 1.04 |
| C[C@H](CO)N1C[C@H](C)[C@@H](CN(C)Cc2ccccc2)OCCCC[C@H](C)Oc2ccc(NC(=O)Nc3cccc4ccccc34)cc2C1=O | inactive: 1.03 |
| Cc1ccc2nc(-c3ccc(NC(=O)C4CCC4)cc3)sc2c1 | inactive: 1.02 |
| C[C@H]1CN([C@@H](C)CO)C(=O)c2c(c3ccccc3n2C)-c2ccccc2CO[C@H]1CN(C)Cc1ccc2c(c1)OCCN2C | inactive: 0.977 |
| C[C@@H]1CN([C@H](C)CO)C(=O)c2cc(NC(=O)Nc3ccc(C(F)(F)F)cc3)ccc2O[C@@H](C)CCCCO[C@@H]1CN(C)S(=O)(=O)c1cccs1 | inactive: 1.01 |
| CCCNC(=O)N1C[C@@H](O)COC[C@H]2O[C@H](CC(=O)NCc3ccncn3)CC[C@@H]21 | inactive: 0.992 |
| O=C(NCc1nc2ccccc2[nH]1)C1=C[C@@H](c2ccc(C(F)(F)F)cc2)C[C@@H](OCc2ccc(CO)cc2)O1 | inactive: 1.03 |
| CCCn1ncnc1[C@@H](C)N | inactive: 1.03 |
| Cc1ccc(S(=O)(=O)N(C)C[C@@H]2Oc3c(NS(=O)(=O)c4cn(C)cn4)cccc3C(=O)N([C@@H](C)CO)C[C@@H]2C)cc1 | inactive: 1.02 |
| C[C@@H]1CN([C@H](C)CO)C(=O)c2ccccc2-c2ccccc2CO[C@H]1CN(C)S(=O)(=O)c1ccc(C(F)(F)F)cc1 | inactive: 1.05 |
| C[C@H](CO)N1C[C@H](C)[C@@H](CN(C)S(=O)(=O)c2ccccc2)Oc2cc(C#Cc3ccncc3)ccc2S1(=O)=O | inactive: 1.02 |
| C=CCNC(=O)[C@H]1[C@@H]2C(=O)O[C@@H](c3ccccc3)[C@@H](c3ccccc3)N2[C@@H](c2ccc(OCCO)cc2)[C@]12C(=O)N(C(=O)OCCOC)c1ccc(C#Cc3ccc(OC)cc3)cc12 | inactive: 1.07 |
| Cc1cc(NN)nc(SCC(=O)NN)n1 | inactive: 0.962 |
| C[C@@H]1CCCCO[C@H](CN(C)CC2CCCCC2)[C@H](C)CN([C@H](C)CO)C(=O)c2cc(NC(=O)CCCN(C)C)ccc2O1 | inactive: 0.972 |
| COc1cc(/C=C/c2cc(O)cc(O[C@@H]3O[C@H](CO)[C@@H](O)[C@H](O)[C@H]3O)c2)ccc1O[C@@H]1O[C@H](CO)[C@@H](O)[C@H](O)[C@H]1O | inactive: 0.981 |
| COc1ccc(S(=O)(=O)Nc2ccc3c(c2)C(=O)N([C@@H](C)CO)C[C@@H](C)[C@H](CN(C)S(=O)(=O)c2ccc(F)cc2)O3)cc1 | inactive: 1.03 |
| N=C(N=C(N)N)NCCc1ccccc1 | inactive: 1 |
| CCCCC/C=C\C=C\CCCCCCCCC(=O)O | inactive: 1 |
| CC(C)CN(C[C@@H](O)[C@H](Cc1ccccc1)NC(=O)O[C@H]1CCOC1)S(=O)(=O)c1ccc(N)cc1 | inactive: 1.03 |

— the supplement of paper PMC9446081
